# In all, about 350,000 compounds went through this assay and about 9,900 (2.8%) were called active. Inconclusive means that the source gave no clear call. Such entries were picked first, then a sample of the others. The call rests on the fitted dose curve; in most records, active means well fitted activation curve with a large enough effect; inconclusive means small, poorly fitted or top-dose-only effect; inactive means no such curve, though single readings can be large or run the other way. Potencies of inconclusive entries are left out as doubtful fits.
# Test: A quantitative high throughput screen for small molecules that induce DNA re-replication in MCF 10a normal breast cells. Further: nearly all actives have a fitted effect of over 50% in size. On activity, positive = re-replication: % of control where 0% means no effect.
# Conditions: MCF 10A DNA re-replication, Hoechst nuclear intensity, 48 h; activity, positive = re-replication: at 46.1 µM (top of the series)
# Potency means the concentration at half of the fitted maximal effect; tags describe the fitted curve by direction and shape.
SMILES,Potency,"activity, positive = re-replication"
COc1cc(/C=C2\CC/C(=C\c3cc(OC)c(O)c(OC)c3)C2=O)cc(OC)c1O,"inconclusive [activator, full curve, poor fit]",–
COc1ccc(Nc2cccc3ccccc23)cc1,–,inactive: -13.6%
Cc1noc(C)c1CSc1nc2sc3c(c2c(=O)n1C)CCCC3,"inconclusive [activator, full curve]",–
Cc1cc(SCNC(=O)c2ccccc2)ncn1,"inconclusive [activator, full curve, poor fit]",–
CC(NC(=O)c1ccccc1Cl)NC(=O)c1ccccc1Cl,"inconclusive [activator, partial curve, poor fit]",–
O=C1/C(=C\c2ccc(O)c(O)c2)C(c2ccccc2)=NN1c1ccccc1,"inconclusive [activator, single point]",–
CC(=O)Nc1c(I)c(C(=O)N[C@H]2[C@@H](O)[C@H](O)[C@H](CO)O[C@@H]2O)c(I)c(N(C)C(C)=O)c1I,–,inactive: -1.88% [at 20.6 µM]
Cc1cccc(Nc2nnc(SCC(=O)c3ccc(Br)s3)s2)c1C,"inconclusive [activator, single point]",–
O=[N+]([O-])c1ccccc1C=NNC(=S)NN=Cc1ccccc1[N+](=O)[O-],active: 18.4 µM,–
CCOC(=O)C1CCN(C(=O)COc2ccc(N(C)S(=O)(=O)c3ccc(C)cc3)cc2)CC1,"inconclusive [activator, single point]",–
CCCCCN(C(=O)CCC(=O)OCc1ccccc1F)c1c(N)n(CCCC)c(=O)[nH]c1=O,–,inactive: 3.42%
COc1ccc(OC(C)C(=O)Nc2cccc([N+](=O)[O-])c2)cc1 (stereo not given),–,inactive: -42.6%
CCOc1ccc(S(=O)(=O)N2CCCC(C(=O)Nc3cccc(C)c3)C2)cc1 (stereo not given),–,inactive: 1.58%
COc1ccc(C(=O)CCN2CCN(c3ccccc3OC)CC2)cc1,active: 2.59 µM,–
COc1cc(/C=C/C(=O)OCC(=O)Nc2cc(S(=O)(=O)N3CCCCC3)ccc2C)ccc1O,–,inactive: 10.6%
S=c1[nH]nc(-c2cc(-c3ccccc3)n[nH]2)n1/N=C/c1ccccc1,"inconclusive [activator, single point]",–
O=C(Nc1ccccc1OC(F)F)c1ccc(-n2cncn2)c([N+](=O)[O-])c1,–,inactive: -0.402%
COc1ccccc1NC(=O)COC(=O)c1c(C)nn(-c2ccccc2)c1C,–,inactive: 4.73%
Cc1c(C(c2ccccc2)c2c(C)n(C)n(-c3ccccc3)c2=O)c(=O)n(-c2ccccc2)n1C,–,inactive: 0.206%
O=C(Nc1ncccn1)c1cc([N+](=O)[O-])cc([N+](=O)[O-])c1,"inconclusive [activator, partial curve, poor fit]",–
Cc1cc2c(cc1C)C(c1cccc([N+](=O)[O-])c1)CC(=O)N2 (stereo not given),"inconclusive [activator, single point]",–
COc1ccc2nc(NCc3ccccc3)[nH]c2c1,active: 18.4 µM,–
CCn1c(COc2cccc3ccccc23)nnc1SCC(=O)OC1CCCCC1,"inconclusive [activator, full curve]",–
Cc1ccccc1CNc1ccc(C(CC(N)=O)NC(=O)c2ccccc2)cc1[N+](=O)[O-] (stereo not given),"inconclusive [activator, single point]",–
O=C(CCNC(=O)c1ccccc1)NCCCc1ccccc1,–,inactive: -3.56%

SMILES,Potency,"activity, positive = re-replication"
O=C(CCC(=O)c1ccc(Cl)cc1)OCn1nnc2ccccc2c1=O,–,inactive: -3.23%
CC1CC(C)CN(C(=O)CCNC(=O)Cn2ccc3ccccc3c2=O)C1 (stereo not given),–,inactive: -3%
OC(CN=c1sc2ccccc2n1CC(O)COc1ccccc1)COc1ccccc1 (stereo not given),"inconclusive [activator, single point]",–
O=[N+]([O-])c1cc(S(=O)(=O)NCCN2CCOCC2)ccc1Cl,"inconclusive [activator, single point]",–
CCOc1cccc(N2C(=O)CC(NNC(=O)c3ccc(Br)o3)C2=O)c1 (stereo not given),"inconclusive [activator, single point]",–
CCCCOP(=O)(OCCCC)C(O)c1ccc(N(C)C)cc1 (stereo not given),–,inactive: 11.2%
CCOC(=O)C1CCN(C(=O)CSc2ccccc2)CC1,–,inactive: 0.647%
COc1ccc(NC(=O)COc2cccc(-n3cnnn3)c2)cc1Cl,–,inactive: -4.55%
CC(=O)N1CCN(c2ccc(NC(=O)c3ccccc3C)cc2)CC1,"inconclusive [activator, single point]",–
CCCCC(=O)NNC(=S)NC(=O)CCC,"inconclusive [activator, single point]",–
Cc1c(C)n(C(=O)CN2CCN(c3ccccn3)CC2)c2ccccc12,"inconclusive [activator, partial curve, poor fit]",–
COCCN1CCN(C(=O)c2cc(COc3ccc(F)cc3F)on2)CC1,"inconclusive [activator, partial curve, poor fit]",–
COC(=O)[C@@]12CCCCN1[C@H](c1ccc(-c3ccc(F)cc3)cc1)[C@@H]1C(=O)N(C)C(=O)[C@@H]12,"inconclusive [activator, partial curve, poor fit]",–
COc1ccc(S(=O)(=O)N(C)C)cc1NCC(=O)Nc1ccc(F)cc1F,–,inactive: 0.0017%
O=C(N/N=C\c1ccc([N+](=O)[O-])o1)c1ccc(O)cc1,–,inactive: 14% [at 20.6 µM]
COc1ccc(-c2nnc(SCC(=O)N(Cc3ccccc3)C(C)(C)C)o2)cc1OC,"inconclusive [activator, partial curve, poor fit]",–
CNc1ccccc1C(C)(C)c1cc(-c2cccc(Br)c2)no1,active: 14.6 µM,–
Cc1cc(C(=O)N2CCCC(C(=O)c3cccc(C(F)(F)F)c3)C2)n[nH]1 (stereo not given),–,inactive: -1.38%
CCOc1ccc(-c2nnn(CC(=O)NCc3ccc(C)cc3)n2)cc1,"inconclusive [activator, full curve, poor fit]",–
Cn1c(CCNS(=O)(=O)c2ccccc2)nc2cc([N+](=O)[O-])ccc21,–,inactive: -4.42%
CC(CN1C(C)CCCC1C)OC(=O)c1ccc(Cl)cc1Cl (stereo not given),–,inactive: 12.6%
COc1cccc(CN(CCC(C)C)S(=O)(=O)c2cc(Br)ccc2Br)c1,"inconclusive [activator, partial curve, poor fit]",–
NC1=NC(=O)/C(=C/c2cn(Cc3ccccc3)c3ccccc23)S1,"inconclusive [activator, single point]",–
CN(Cc1cccnc1)C(=O)c1cc(S(=O)(=O)Nc2ccccc2F)ccc1Cl,–,inactive: 8.66%
COCCCN(C(=O)c1ccccc1)c1nc(-c2ccc(OC)cc2)cs1,–,inactive: 2.21%

SMILES,Potency,"activity, positive = re-replication"
COc1ccc(Oc2nc(C(F)(F)F)nc3ccccc23)cc1,"inconclusive [activator, single point]",–
Cc1ccc(-c2noc(CCC(=O)NC3CC3)n2)cc1,–,inactive: -8.03%
Cc1ccccc1NC(=O)Cc1nc(COC(=O)c2ncc(Cl)c(Cl)c2Cl)cs1,"inconclusive [activator, single point]",–
CC1=Nc2cc(C(=O)NCCCOC(C)C)ccc2Sc2ccccc21,active: 7.31 µM,–
O=C(NCc1nc2ccccc2[nH]1)C1=C[C@@H](c2ccc(Br)cc2)C[C@@H](OCCCCO)O1,–,inactive: 4.71%
Cc1ccc(S(=O)(=O)CNC(=S)c2cccc(Cl)c2)cc1,–,inactive: 6.27%
O=C1NC2(CCCCC2)NN1c1ccccc1,–,inactive: 10.3%
CCOC(=O)c1cnc(SCc2ccc(C(C)(C)C)cc2)nc1N,–,inactive: 14.7%
COc1cc(NC(=O)CCC(=O)Nc2ccc3nc(N4CCOCC4)cc(C)c3c2)cc(OC)c1OC,–,inactive: -10.6%
CC(NC(=O)C(Cc1ccccc1)N1C(=O)C2C3CCC(C3)C2C1=O)c1ccccc1 (stereo not given),–,inactive: -2.01%
OCCN1CCN(Cc2nc(-c3cccc(Cl)c3)no2)CC1,"inconclusive [activator, partial curve, poor fit]",–
CCCc1ccc2oc(C(=O)N(C)Cc3nccs3)c(C)c2c1,"inconclusive [activator, single point]",–
COc1ccc(S(=O)(=O)Nc2cccnc2)c(C)c1C,"inconclusive [activator, partial curve, poor fit]",–
Cc1ccccc1-c1ccc(/C=C2/SC(N3CCOCC3)=NC2=O)o1,active: 16.4 µM,–
Cc1cccc(-c2nc3c(s2)CCc2onc(-c4ccc(Br)cc4)c2-3)c1,–,inactive: 8.85%
COc1ccc2oc(=O)c(C(=O)Nc3ccccc3O)cc2c1,–,inactive: 2.57%
COc1ccc(N2C(=O)CC(Sc3nc4ccccc4s3)C2=O)cc1 (stereo not given),"inconclusive [activator, single point]",–
O=C(CSc1nncc2ccccc12)Nc1ccc(F)cc1,–,inactive: -7.39%
Cc1ccc(-c2nn(-c3ccccc3)cc2/C=C2\SC(=S)N(CCCCCC(=O)O)C2=O)o1,active: 18.4 µM,–
COc1ccc(S(=O)(=O)N2CCC(C(=O)N3CCCCC3)CC2)cc1Cl,"inconclusive [activator, partial curve, poor fit]",–
O=C(NCCCc1ccccc1)Nc1cccc(Cl)c1,"inconclusive [activator, partial curve, poor fit]",–
CCc1noc(C)c1C(=O)NNC(=O)COc1ccc(C)c(C)c1,–,inactive: 5.64%
COc1ccc2oc(-c3ccc(NC(=O)c4ccc(N5CCOCC5)c([N+](=O)[O-])c4)cc3)nc2c1,"inconclusive [activator, partial curve, poor fit]",–
C=COCCCNc1ncnc2sc(-c3ccccc3)cc12,"inconclusive [activator, full curve, poor fit]",–
O=C1C=C(NCCN2CCOCC2)C(=O)c2cnccc21,"inconclusive [activator, partial curve, poor fit]",–

# Reference: PubChem BioAssay AID624296 (National Center for Advancing Translational Sciences (NCATS), 2012)
